Source: publication PMC4336329 (PLoS ONE, 2015)
Hit rate of the full screen: of about 310,000 compounds, about 2,200 (0.71%) showed an effect of 50% or more. Effects have a minus sign here. The list shows a part of the results.

Molecular target: human ether-à-go-go-related gene (hERG) potassium channel (human, UniProt Q12809)
Assay: primary screen, population patch clamp on CHO cells stably expressing hERG

human ether-à-go-go-related gene (hERG) potassium channel, sequence (Q12809 whole entry, looked up): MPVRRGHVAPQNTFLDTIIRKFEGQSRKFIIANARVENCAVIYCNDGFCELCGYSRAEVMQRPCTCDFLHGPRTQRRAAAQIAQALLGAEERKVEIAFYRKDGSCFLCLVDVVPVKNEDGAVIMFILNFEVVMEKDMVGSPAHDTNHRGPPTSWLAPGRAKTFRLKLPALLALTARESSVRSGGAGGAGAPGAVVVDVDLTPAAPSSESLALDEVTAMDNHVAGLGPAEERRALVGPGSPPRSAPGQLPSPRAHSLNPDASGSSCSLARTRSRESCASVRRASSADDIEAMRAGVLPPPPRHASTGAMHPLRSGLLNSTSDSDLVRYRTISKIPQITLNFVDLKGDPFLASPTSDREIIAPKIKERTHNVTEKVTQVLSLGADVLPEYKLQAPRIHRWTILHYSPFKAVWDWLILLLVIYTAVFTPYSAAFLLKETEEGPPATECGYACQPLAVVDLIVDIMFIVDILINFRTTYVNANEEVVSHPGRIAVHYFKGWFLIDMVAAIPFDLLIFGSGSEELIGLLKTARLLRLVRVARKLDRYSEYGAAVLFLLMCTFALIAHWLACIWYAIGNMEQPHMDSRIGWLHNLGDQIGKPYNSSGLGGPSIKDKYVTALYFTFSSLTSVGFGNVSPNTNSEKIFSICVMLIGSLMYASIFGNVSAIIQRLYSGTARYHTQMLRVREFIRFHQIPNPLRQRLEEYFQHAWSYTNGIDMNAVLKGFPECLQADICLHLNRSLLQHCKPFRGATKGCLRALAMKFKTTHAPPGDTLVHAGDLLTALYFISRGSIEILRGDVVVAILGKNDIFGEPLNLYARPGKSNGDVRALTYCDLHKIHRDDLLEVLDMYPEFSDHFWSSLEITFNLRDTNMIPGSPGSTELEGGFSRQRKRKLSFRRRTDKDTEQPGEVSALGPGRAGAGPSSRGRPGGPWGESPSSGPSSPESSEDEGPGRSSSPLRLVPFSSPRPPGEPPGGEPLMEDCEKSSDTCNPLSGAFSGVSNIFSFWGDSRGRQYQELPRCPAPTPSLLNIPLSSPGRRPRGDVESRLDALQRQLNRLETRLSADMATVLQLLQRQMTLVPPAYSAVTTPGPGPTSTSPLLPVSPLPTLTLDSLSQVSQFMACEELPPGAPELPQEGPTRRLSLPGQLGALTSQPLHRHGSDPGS

Row | Structure (SMILES) | hERG current change (%, negative = inhibition) at 1uM [%]
1 | CCOc1ccccc1NC(=O)CSc1nnc(CNC(=O)c2ccco2)o1 | 2.39
2 | COc1ccc(Cl)cc1-c1n[nH]c(=S)n1Cc1ccccc1 | 17
3 | Cc1cc(C(=O)CSc2nc(N)cc(N)n2)c(C)n1C1CC1 | 4.34
4 | COc1ccc(OS(=O)(=O)Cc2ccccc2)cc1 | 14
5 | COC(=O)c1c(-c2ccccc2)c(-c2ccccc2)nn(C)c1=O | 12.9
6 | CCC1(C)NC(=O)N(/N=C/c2cc(OC)c(O)c(OC)c2)C1=O (stereo not shown) | 21.6
7 | CCOC(=O)c1[nH]c2ccc(OC)cc2c1NC(=S)N1CCN(c2ccccc2OC)CC1 | 5.28
8 | CCC1(C)OC(=O)N2CCc3c(C)[nH]c4c(C)ccc(c34)C21C (stereo not shown) | 11.7
9 | COC(=O)c1ccc(Cn2cc(Cl)cn2)cc1 | 5.68
10 | CCN(C(=O)c1ccc2c(c1)OCO2)C1CCS(=O)(=O)C1 (stereo not shown) | 6.88
11 | Cc1cc(C(=O)N2CCN(C(=O)c3ccco3)CC2)ccc1[N+](=O)[O-] | -15.9
12 | CCCCN(C(=O)c1ccc(-c2ccc([N+](=O)[O-])cc2)o1)c1c(N)n(CCCC)c(=O)[nH]c1=O | 9.42
13 | CCCOc1ccc(C(=O)N2CCN(c3ccc(NC(=O)CC)cc3Cl)CC2)cc1 | -58.7
14 | COc1ccc(S(=O)(=O)NNC(=O)Nc2ccc(F)cc2)cc1 | 8.76
15 | O=C(O)CCC(=O)Nc1ccc(Br)cn1 | 6.26
16 | S=c1[nH]nc(-c2ccc(Cl)cc2)n1-c1ccc(Cl)cc1 | 9.56
17 | Cc1ccc(NNC(=O)CCc2ccccc2)c(C)c1 | 12.8
18 | Cc1nnc(NC(=O)NC(C)N2C(=O)C3C4C=CC(C4)C3C2=O)s1 (stereo not shown) | 23.3
19 | COc1cc2c(cc1OC)-c1cc(NCc3ccccn3)nc(=O)n1CC2 | 11.6
20 | CCOC(=O)N1CCC(n2c(SCC(=O)NCCc3ccc(S(N)(=O)=O)cc3)nc3ccccc3c2=O)CC1 | -1.77
21 | Cc1cc2nc(-c3ccc(=O)[nH]c3)n(Cc3ccccc3)c2cc1C | -1.15
22 | Cc1cc([N+](=O)[O-])ccc1NC(=O)c1ccco1 | 11.3
23 | CC1CCCN(C(=O)c2ccc(NC(=O)CC3SC(N4CCCC4)=NC3=O)cc2)C1 (stereo not shown) | 8.1
24 | Cc1cc(C)n(CCc2nc(-c3cccs3)cs2)n1 | 6.85
25 | C=C1C(=O)O[C@H]2C[C@@H](C)[C@@H]3C=CC(=O)[C@@]3(C)C[C@H]12 | 10.8
